This is an account of results in publication PMC7819943, “Rice protein-binding microarrays: a tool to detect cis-acting elements near promoter regions in rice”.

Some of the results follow.

In this assay the target is T1, OsWOX13 (Oryza sativa, UniProt Q5QMM3 1-267).
T1 sequence: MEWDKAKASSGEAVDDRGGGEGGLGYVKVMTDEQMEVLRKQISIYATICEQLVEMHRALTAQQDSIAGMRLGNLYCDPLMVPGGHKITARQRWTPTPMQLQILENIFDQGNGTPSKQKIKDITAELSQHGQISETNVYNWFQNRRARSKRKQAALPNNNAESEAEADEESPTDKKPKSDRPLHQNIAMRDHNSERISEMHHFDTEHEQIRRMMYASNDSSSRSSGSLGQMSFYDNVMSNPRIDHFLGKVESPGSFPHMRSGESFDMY
As to the kind of experiment: protein-binding microarray (RPBM); PBS, 2% BSA, 51.3 ng/ul salmon testes DNA, 50 uM zinc acetate, 200 nM TF, 25 C, 1 h; high values mean tight binding. The conditions noted are these: protein: recombinant; tags: N-terminal polyhistidine and DsRed monomer fusion (pET32a); label: CyDye5-dUTP incorporated in the synthesized complementary strand; 3' TTTTT single-stranded linker to array surface; dsDNA, one strand shown. The essentials: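 An Axon 4000B scanner gave the binding signal as per-feature fluorescence intensity in arbitrary units. This followed washing of a custom Agilent array that had been incubated for 1 h at 25 °C with 200 nM protein in PBS, 2% BSA, salmon testes DNA and 50 µM zinc acetate. The proteins were transcription factors fused at the N-terminus to polyhistidine and DsRed, expressed in E. coli BL21-CodonPlus and purified on Ni–NTA.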
On to “GGTGAGATTATACCACTTGATAGCACAATTGGAAGGAGCACGGAGTCACCTAGTGCAG”, for which the binding signal is 5070 fluorescence intensity (a.u.). For the sequence “ATAATTAATCCATAATTAGCAAAGGTTTGCAGTAGCATCACGGAGTCACCTAGTGCAG”, the binding signal was 27800 fluorescence intensity (a.u.). Regarding “ATCGTGACATCAAATCTAGCAATATCCTTCTTGACCAGCACGGAGTCACCTAGTGCAG”, the binding signal is 3210 fluorescence intensity (a.u.). Turning to “TTATAATAATTGTATTTCTACCATTTAAATTTTATATAAACGGAGTCACCTAGTGCAG”, the binding signal was 5030 fluorescence intensity (a.u.).

“TAGTCTAGATTTAATCTCAATTGCCAATTATGACCTACCGCGGAGTCACCTAGTGCAG”: the binding signal is 20500 fluorescence intensity (a.u.). As for “ATTAAACAATTAATTTCTCCGATGGTTCCATGTTAGGACGCGGAGTCACCTAGTGCAG”, the figure is 30100 fluorescence intensity (a.u.); as for “TACTAGCTGATTTTGTCATTACCTTTTGGCCGTATTCGCCCGGAGTCACCTAGTGCAG”, 3810 fluorescence intensity (a.u.); as for “TGCTAATGGACTTATTACTTTTGCTTGCTTTAATTTTGCCCGGAGTCACCTAGTGCAG”, 14600 fluorescence intensity (a.u.). Under “TCATGTTTATCAATTTATGCGTGATCGAAATCCTGGATGACGGAGTCACCTAGTGCAG” stands 11000 fluorescence intensity (a.u.). Under “CTATATGACTGGTATTGTGGTTCAGAAAGGAAGTTCGGACCGGAGTCACCTAGTGCAG” stands 6220 fluorescence intensity (a.u.); under “AAGCCTAATTAGTCTATAATTAGCCATAAGTATTACAGTACGGAGTCACCTAGTGCAG”, 26200 fluorescence intensity (a.u.); under “ATAATGCGTTGATGTGCAATCAGCGATCTTGTACTTCTTACGGAGTCACCTAGTGCAG”, 9360 fluorescence intensity (a.u.). Regarding “ACCAGCAATTAGATTAGAAGTTCAGAACCGGTATCCTAAACGGAGTCACCTAGTGCAG”, the binding signal is 4970 fluorescence intensity (a.u.).

On to “AATAACAGGTTAATTCTAAACGGCATTCGCATCATTGTCTCGGAGTCACCTAGTGCAG”, for which the binding signal was 5800 fluorescence intensity (a.u.).

Regarding “TAAAATTAACATGGTATCACCTGTGTGACAATATATATCGCGGAGTCACCTAGTGCAG”, the binding signal was 18600 fluorescence intensity (a.u.).

Regarding “ACCTTTTCCCATCCCCTTTCCCTCGTTTTCCGCGTGCACGCGGAGTCACCTAGTGCAG”, the binding signal was 4510 fluorescence intensity (a.u.). Turning to “ATAGATAAACTAATTTATATATTTATATAGTCTTATAAACCGGAGTCACCTAGTGCAG”, the binding signal is 7340 fluorescence intensity (a.u.). Under “CATTATTATTTTCTCTGTCAATATTTGATTCTAACCGATCCGGAGTCACCTAGTGCAG” stands 3460 fluorescence intensity (a.u.).

For the sequence “CTTCCAACAGATTAATCACCACCAATCGGTGAAAAGAGAACGGAGTCACCTAGTGCAG”, the binding signal was 5340 fluorescence intensity (a.u.). As to “GCCGTAATTTCACCTTTCGCCACGCCGTACCCACAGCAAGCGGAGTCACCTAGTGCAG”, the binding signal was 5260 fluorescence intensity (a.u.). As for “TCCGTATAATTTGCATTGAGATCCGAGGTTTAATCTAGATCGGAGTCACCTAGTGCAG”, the figure is 7270 fluorescence intensity (a.u.); as for “AATGTCTAATCAAGTAATCATCATGTGGTCAATTATCACACGGAGTCACCTAGTGCAG”, 15700 fluorescence intensity (a.u.). Under “ATATATATATATATATATATATATATTTTAGGACTGGCTGCGGAGTCACCTAGTGCAG” stands 22300 fluorescence intensity (a.u.); under “GCTCCGTCACTGTCAATAATCTGTTTCAAATTCAGTCTAACGGAGTCACCTAGTGCAG”, 10100 fluorescence intensity (a.u.); under “TTATTAATTCCATAATCAGAACTTTGATGTGATATAACCTCGGAGTCACCTAGTGCAG”, 9130 fluorescence intensity (a.u.). As to “TTCCTTTTGATTGTTGAATTATATATGTGCTTCGATACATCGGAGTCACCTAGTGCAG”, the binding signal is 29500 fluorescence intensity (a.u.). Regarding “AATAATTGGTATTTGAACGTACCAAATTAATTGAGCAATTCGGAGTCACCTAGTGCAG”, the binding signal was 33700 fluorescence intensity (a.u.). As to “GGGATTGGCTGGAGGGGTGATGTGAGGGTTTTGGTCGAAGCGGAGTCACCTAGTGCAG”, the binding signal was 14200 fluorescence intensity (a.u.). As for “CGCGATACGTGATTGAAATCGTCTGATACCTGACAGGTTTCGGAGTCACCTAGTGCAG”, the figure is 42200 fluorescence intensity (a.u.). For the sequence “TACATTTAACAAAACTAATTTAATATTATAAATATTGCTACGGAGTCACCTAGTGCAG”, the binding signal is 3780 fluorescence intensity (a.u.).

For “TCCTATTATTAGCTTTTAAATTGCTAAGGAGATATAAAAGCGGAGTCACCTAGTGCAG”, the binding signal was 5940 fluorescence intensity (a.u.). As for “ATTAAATTAACTAGCTCCGACTATTCTAGACACAATTCGACGGAGTCACCTAGTGCAG”, the figure is 19500 fluorescence intensity (a.u.). Take “AGGAGAAACAATTTGCAATCATCACATTGTTTAAAGAGATCGGAGTCACCTAGTGCAG”: the binding signal was 5330 fluorescence intensity (a.u.).

Turning to “CAAATTTAATCAATACATAAGAAATCCTGCTAAAATTTTGCGGAGTCACCTAGTGCAG”, the binding signal is 7580 fluorescence intensity (a.u.). As for “CCCTAATTTGTTAATCTCGGGGTAGGAAAACCAAACAAACCGGAGTCACCTAGTGCAG”, the figure is 17900 fluorescence intensity (a.u.). In the case of “AGAGTTAATTGGATCGATGCCACTACAAATATACCATTTTCGGAGTCACCTAGTGCAG”, the binding signal was 20100 fluorescence intensity (a.u.). Regarding “CATCAATTAATTGACATGATACTATCTACCTTGCGTGTCGCGGAGTCACCTAGTGCAG”, the binding signal was 65000 fluorescence intensity (a.u.). As for “GTCAATCATGGGATATTACTGTACTACCTCCGTCTCAGAACGGAGTCACCTAGTGCAG”, the figure is 8920 fluorescence intensity (a.u.); as for “CGACAAATTAAGCTTTTATAAACTCTGCCTTTGATCCTTGCGGAGTCACCTAGTGCAG”, 11300 fluorescence intensity (a.u.); as for “AGCAGCATAAATGCAATTAAATTTGTAGCAATCGAACATGCGGAGTCACCTAGTGCAG”, 4680 fluorescence intensity (a.u.). Consider “TGGGATCAGGAGTCTGCTGATTGGATTGGGCTGCGGACCTCGGAGTCACCTAGTGCAG”, for which the binding signal is 14000 fluorescence intensity (a.u.).

In the case of “ACCAAGCAATCATATATATGTCCATCATGCATGCCTAACACGGAGTCACCTAGTGCAG”, the binding signal was 7750 fluorescence intensity (a.u.).
